# Assay results taken from publication PMC4336329 (PLoS ONE, 2015).
# The whole screen tested about 310,000 compounds, of which about 2,200 (0.71%) showed an effect of 50% or more. The effect is printed as a negative number. The list shows a part of the results.
# Molecular target: human ether-à-go-go-related gene (hERG) potassium channel (human, UniProt Q12809)
# Test: primary screen, population patch clamp on CHO cells stably expressing hERG
# human ether-à-go-go-related gene (hERG) potassium channel, sequence (Q12809 whole entry, looked up): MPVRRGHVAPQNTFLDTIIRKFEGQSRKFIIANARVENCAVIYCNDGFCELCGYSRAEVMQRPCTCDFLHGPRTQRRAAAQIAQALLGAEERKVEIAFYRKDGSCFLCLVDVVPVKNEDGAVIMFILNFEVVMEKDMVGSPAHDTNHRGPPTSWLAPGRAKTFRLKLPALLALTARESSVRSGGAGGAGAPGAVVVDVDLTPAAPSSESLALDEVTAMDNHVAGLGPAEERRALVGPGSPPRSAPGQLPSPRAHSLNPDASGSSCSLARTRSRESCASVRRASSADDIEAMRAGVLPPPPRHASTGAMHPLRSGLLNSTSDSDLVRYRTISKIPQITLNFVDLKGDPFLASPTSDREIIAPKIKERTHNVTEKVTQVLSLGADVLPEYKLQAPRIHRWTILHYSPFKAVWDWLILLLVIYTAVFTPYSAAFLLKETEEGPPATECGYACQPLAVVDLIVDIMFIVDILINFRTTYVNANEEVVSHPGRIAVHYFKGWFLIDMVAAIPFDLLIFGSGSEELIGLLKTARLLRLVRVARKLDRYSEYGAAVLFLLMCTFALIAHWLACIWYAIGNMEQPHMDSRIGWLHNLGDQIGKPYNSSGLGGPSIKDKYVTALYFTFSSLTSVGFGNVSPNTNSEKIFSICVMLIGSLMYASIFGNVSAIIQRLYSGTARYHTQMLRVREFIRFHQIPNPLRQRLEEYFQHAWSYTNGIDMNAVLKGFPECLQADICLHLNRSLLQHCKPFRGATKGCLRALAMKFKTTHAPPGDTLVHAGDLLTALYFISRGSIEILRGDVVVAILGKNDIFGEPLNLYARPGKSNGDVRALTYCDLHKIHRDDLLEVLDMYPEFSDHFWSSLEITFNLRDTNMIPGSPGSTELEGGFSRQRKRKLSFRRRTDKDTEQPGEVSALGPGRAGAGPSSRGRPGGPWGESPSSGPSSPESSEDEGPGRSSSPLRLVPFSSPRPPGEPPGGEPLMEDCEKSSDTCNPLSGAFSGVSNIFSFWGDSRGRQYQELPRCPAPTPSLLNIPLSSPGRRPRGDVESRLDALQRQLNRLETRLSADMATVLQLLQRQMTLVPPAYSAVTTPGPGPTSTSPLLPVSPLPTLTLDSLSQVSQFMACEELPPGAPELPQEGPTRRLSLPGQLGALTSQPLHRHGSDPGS
row,Compound,"hERG current change (%, negative = inhibition) at 1uM"
1,CCn1c(/C=C2/C(=O)N(C)c3ccccc32)nc2ccccc2c1=O,8.81%
2,O=C(Cn1cccc1C(=O)c1ccccc1)NCc1ccc(F)cc1,7.48%
3,COC(=O)Cc1c(OC)ccn(CCc2c[nH]c3ccccc23)c1=O,11.5%
4,Cc1ccc(S(=O)(=O)N2CCN(C(=O)COC(=O)c3cc(C)oc3C)CC2)cc1,10.9%
5,c1ccc2c(c1)OCC(c1csc3ncnc(N4CCCC4)c13)O2 (stereo not shown),13.3%
6,CNc1ccc(C(O)(C(F)(F)F)C(F)(F)F)cc1C(O)(C(F)(F)F)C(F)(F)F,12.9%
7,COc1ccc(CNC(=O)C(NC(C)=O)C(C)C)cc1OC (stereo not shown),10.9%
8,O=C(O)c1cc2ccc3cccc4ccc(c1)c2c34,1.08%
9,O=C(Cc1n[nH]c(=O)c2ccccc12)OCC(=O)N(Cc1ccccc1)Cc1ccccc1,2.78%
10,CC(NC(=O)/C=C/c1ccco1)c1nc2ccccc2n1Cc1c(Cl)cccc1Cl (stereo not shown),1.8%
11,COc1ccc(/C=N/NC(=O)c2nc(-c3ccccc3)cc(-c3ccccc3)n2)cc1O,5.41%
12,N/C(=N\OC(=O)CC1CCCCC1)c1cccnc1,-2.21%
13,COC(=O)c1ccc(CNC(=O)c2ccc(S(=O)(=O)N3CCCC(C)C3)cc2)cc1 (stereo not shown),8.14%
14,COC(=O)[C@]1(CC(C)C)N[C@H](c2ccc(-c3ccc4c(c3)OCO4)cc2)[C@@H]2C(=O)N(C)C(=O)[C@@H]21.O=C(O)C(F)(F)F,11.9%
15,COc1ccc(-c2nnc(SCc3nnc(-c4ccc(Cl)cc4)o3)n2-c2ccccc2)cc1,6.82%
16,O=C(COC(=O)c1cccc(C(=O)OCC(=O)NC2CC2)n1)NC1CC1,10.5%
17,Cc1ccc(CC(=O)Nc2cccc(S(=O)(=O)N3CCOCC3)c2)cc1,-18.8%
18,CCc1ccc(C2NC(=S)NC3=C2C(=O)CC(C)(C)C3)cc1 (stereo not shown),16.5%
19,Cc1ccc(N=C2NC(=O)c3cc([N+](=O)[O-])ccc32)cc1,2.04%
20,O=C(O)/C(=C\c1ccccc1OC(F)F)Sc1nnc(-c2ccc(F)cc2)o1,-1.51%
21,CCCN(CCC)c1nc(C#N)nc(N(CCC)CCC)n1,1.68%
22,O=C(CCCn1nnc2ccccc2c1=O)N[C@@H](Cc1ccccc1)C(=O)O,16.8%

row,Compound,"hERG current change (%, negative = inhibition) at 1uM"
1,CCC(=O)Nc1cccc(-n2nnnc2SCC(=O)N2CCCCC2)c1,12%
2,CCO/N=C1\C(=O)N(c2ccccc2)c2ccccc21,7.81%
3,COc1cc(CNC2CCCC2)c(Br)cc1OC1CCCC1.Cl,-14.4%
4,O=C(/C=C\Nc1ccc2c(c1)OCO2)c1ccc(Cl)s1,27.4%
5,CCOc1cc2[nH]c(=S)n(Cc3ccc(C(=O)NCCCOC)cc3)c(=O)c2cc1OCC,19.8%
6,COc1ccc(CCNC(=O)CSCc2ccc(C)cc2)cc1OC,6.09%
7,O=C(NCC(c1cccs1)N1CCOCC1)c1ccc(Cl)c([N+](=O)[O-])c1 (stereo not shown),1.49%
8,CCCOC1CCCN(C(=O)CCc2nnc(CCCCc3ccccc3)o2)C1 (stereo not shown),6.37%
9,O=c1[nH]c2c(cnn2-c2ccc(Cl)cc2)c(=O)n1-c1cccc(Cl)c1,18.7%
10,O=C(NCc1ccccc1Cl)c1cc2c(s1)CS(=O)(=O)C2,13.2%
11,O=C(COc1ccccc1)Nc1ccc2c(c1)Cc1cc(NC(=O)COc3ccccc3)ccc1-2,9.04%
12,CCC1CCCCN1CCCNC(=O)c1ccc2c(c1)c(C)c(C)n2C (stereo not shown),1.19%
13,CCc1nc(OCCN(CC)CC)c2oc3ccccc3c2n1.Cl,-24.2%
14,COc1ccc(N=C2S/C(=C\c3ccc(Cl)c([N+](=O)[O-])c3)C(=O)N2CCN(C)C)cc1.Cl,8.62%
15,OCC[C@@H]1C[C@@H](O)[C@H](O)[C@@]2(CCc3ccccc3O2)O1,17.1%
16,O=C(CN1C(=O)c2ccccc2C1=O)OCCOCCN=C1NS(=O)(=O)c2ccccc21,15.3%
17,CCN(CC)c1nc(C)c2c(c1C#N)CC(C)(C)OC2,12.5%
18,COC/C=C/C1=CC2=CC(=O)C(C)(OC(=O)c3cnc4ccccc4n3)C(=O)C2=CN1CCOC (stereo not shown),12.8%
19,CCOc1ccc2nc(N(CCCN(C)C)C(=O)c3ccc(S(=O)(=O)N4CCc5ccccc5C4)cc3)sc2c1.Cl,-2.25%
20,CCOc1nc(SCCOc2ccc(C)cc2)nc(N(C)C)n1,2.68%
21,COc1ccc(-c2c(=O)n(OCc3ccccc3[N+](=O)[O-])c3ccccc3[n+]2[O-])c(OC)c1,8.63%
22,CCN(CC(=O)Nc1ccc(NC(C)=O)cc1)C(=O)/C=C/c1cn(-c2ccccc2)nc1-c1cccs1,2.79%

row,Compound,"hERG current change (%, negative = inhibition) at 1uM"
1,CN1CCN(C2=Nc3ccccc3Oc3ccc(Cl)cc32)CC1.O=C(O)CCC(=O)O,11.6%
2,CC1Cc2c([nH]c3ccccc23)C2c3ccccc3CN12 (stereo not shown),1.73%
3,O=C1CC(=O)CC(c2ccccc2Cl)C1,13.3%
4,CC(=O)Nc1ccc(C)c(NS(=O)(=O)c2cccc(C(F)(F)F)c2)c1,14.2%
5,O=C(CNc1cccc(S(=O)(=O)N2CCOCC2)c1)Nc1ccccc1F,16.1%
6,Cn1c(CC(=O)Nc2ccccc2Cl)nnc1SCC(=O)Nc1nncs1,10.2%
7,O=C(O)c1ccc(OCC(O)Cn2cnc3ccccc32)cc1 (stereo not shown),12.2%
8,COc1cccc(CCNC(=O)c2ccc(C#N)cc2)c1,8.19%
9,CN(C(=O)c1cccc(NC(=O)c2ccccc2)c1)C1CCCCC1,5.36%
10,Cc1ccc2nc(N3CCN(C)CC3)c(C=O)c(=O)n2c1,2.08%
11,COc1ccccc1NS(=O)(=O)c1cccc(C(=O)NCc2ccco2)c1,8.36%
12,CN1CCN(C(=O)/C=C/c2ccc(C#N)cc2)CC1,-12%
13,CCc1cc(=O)oc2cc(OS(C)(=O)=O)ccc12,4.93%
14,O=C(CSc1nc2ncc(Cl)cc2[nH]1)Nc1ccccc1-c1ccccc1,15%
15,COc1ccc(NC(=O)CC2C(=O)N(Cc3cccs3)C(=S)N2C(C)C)cc1 (stereo not shown),8.74%
16,OCCC1CN(Cc2ccncc2)CCN1C1CCCC1 (stereo not shown),10.6%
17,CC1CC(C)CN(CCCNC(=O)c2ccc(CS(=O)(=O)Cc3cccc(Cl)c3)o2)C1 (stereo not shown),-33.9%
18,COc1ccc(C)cc1NC(=O)c1cccc(C(=O)Nc2cc(C)ccc2OC)n1,-0.189%
19,COc1cc(CNn2cn[nH]c2=S)cc(Cl)c1OCc1ccc(F)cc1,3.52%
20,COc1ccc(-n2nc(C)c3c(=O)c4c([nH]c32)CCCC4)cc1,12.4%
21,CC(=O)NC(C)Cc1cn(Cc2ccccc2)c2ccccc12 (stereo not shown),17.7%
22,CCN(CC)S(=O)(=O)c1ccc(-c2nnc(SCC(=O)Nc3ccc(OC)c(OC)c3)o2)cc1,4.51%

row,Compound,"hERG current change (%, negative = inhibition) at 1uM"
1,CCN1CCN(Cc2ccc(NC(=O)c3ccc(C)c(NC(=O)N4CCNC4=O)c3)cc2C(F)(F)F)CC1.O=C(O)C(F)(F)F,6.44%
2,COc1c(S(=O)(=O)NCCCN2CCOCC2)ccc(Cl)c1Cl,9.39%
3,CC(C)CC(c1nnnn1C(C)(C)C)N1CCN(C2CCCC2)CC1.Cl (stereo not shown),6.21%
4,Cc1nn(CC(=O)Nc2sc3c(c2C#N)CCC(C(C)(C)C)C3)c(C)c1[N+](=O)[O-] (stereo not shown),5.57%
5,N#C/C(=C\C1=C(N2CCOCC2)C(=C\c2ccc(Cl)cc2)/CC1)C(=O)Nc1ccccc1F,8.26%
6,CCOCCn1cnc2sc(C(=O)NCCCN3CCOCC3)c(C)c2c1=O,14%
7,CC(=O)Nc1ccc(NC(=S)NC(=O)C2CC2)cc1,15.5%
8,O=S(=O)(Nc1cccc(-c2ccc(N3CCOCC3)nn2)c1)c1cc(Cl)ccc1Cl,-2.41%
9,Cn1cc(C(c2ccccn2)c2cn(C)c3ccccc23)c2ccccc21,12.5%
10,O=S(=O)(c1ccc(=S)[nH]c1)N1CCOCC1,7.56%
11,Cc1ccc(NC(=O)c2cc(C)nc3ccccc23)c(Br)c1,8.32%
12,CC(C)(C)NS(=O)(=O)c1ccc(-c2csnn2)s1,1.9%
13,Br.CCOc1ccccc1OCC(=O)NN1Cc2ccccc2C1=N,-45.1%
14,COC(=O)CC1COc2ccccc2N1C(=O)c1cccc(C(F)(F)F)c1 (stereo not shown),16.3%
15,CC1N=C(c2ccccc2)c2cc(Br)ccc2NC1=O (stereo not shown),-3.63%
16,CCOC(=O)c1ccc(N2CCN(C(C)=O)CC2)c(NC(=O)c2cccnc2)c1,10%
17,CC(=O)N1N=C(c2ccncc2)OC12CCCCC2,7.83%
18,Cc1ccc(S(=O)(=O)c2c[nH]c3cc4c(cc3c2=O)OCO4)cc1,9.83%
19,Cc1ccc(-n2c(C)cc(C(=O)COC(=O)c3ccc[nH]c3=O)c2C)cc1C,12.5%
